Whole data set: some 33,000 sequences, median “E-score (-0.5 to 0.5)” near -0.056, cut for the highest 2% near 0.38. Some of the results follow.
Biological target: Stb4 (UniProt P50104)
Assay: PBM E-score (8-mer binding enrichment) (E-score (-0.5 to 0.5)); higher = stronger / more preferred TF binding; most listed sequences are background and not binding sites
Conditions: protein concentration: 200 nM; construct: GST-DNA-binding domain
How it was run: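 Yeast transcription factors carrying a GST tag, as full-length proteins or DNA-binding domains, were produced by PURExpress in vitro transcription/translation. About 100-200 nM protein was applied to universal all-10-mer Agilent arrays, double-stranded by primer extension on fresh or once-stripped slides. Bound protein was detected with fluorescent anti-GST, and scans were normalised with masliner. The Universal PBM Analysis Suite gave each ungapped eight-base word, pooled with its reverse complement, an E-score, a modified Wilcoxon-Mann-Whitney statistic.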

| Sequence | PBM E-score |
| --- | --- |
| CAGACTTC | -0.212 |
| AGCACGCC | -0.029 |
| AGGAGGTA | -0.0982 |
| GCAGACAA | -0.0753 |
| GGTCCAAA | 0.111 |
| ATTTTAGA | 0.0944 |
| AGACCCAC | 0.0322 |
| CAGTGCAG | -0.129 |
| CGTAGCCA | -0.0402 |
| ACGCACGC | 0.11 |
| CTAGGTGA | -0.384 |
| GCGCTTGA | 0.0219 |
| ACTGAAGG | -0.0721 |
| AAACCTGA | -0.0724 |
| ATGTACAT | -0.258 |
| TTGGACAA | 0.047 |
| CGTACCAG | -0.103 |
| AGCCGTCA | 0.237 |
| AGCCACGG | 0.0348 |
| AACCATGG | -0.0283 |
| ATGGTAAT | 0.149 |
| AGATCGTA | -0.099 |
| ATTCGAGG | -0.096 |
| CTCAACAA | -0.206 |
| GATCCTAA | -0.165 |

| Sequence | PBM E-score |
| --- | --- |
| ATCTTTGG | -0.165 |
| CCAGAGGG | 0.0202 |
| ATATTACA | 0.0675 |
| AGTCTAGC | -0.148 |
| GACATCCC | 0.128 |
| AATATAAA | 0.0199 |
| GAATCGTC | 0.115 |
| CGGTTGGC | 0.184 |
| CTTGGTAA | -0.185 |
| GGCAGAAC | 0.0679 |
| CCATGTCA | -0.32 |
| GGCAGCCC | 0.151 |
| GAAGGCAC | 0.0839 |
| AGCAAGCG | 0.163 |
| CCTTGGAC | -0.131 |
| GGGGACAC | -0.11 |
| CTTAGTGC | 0.0187 |
| ACAGGCAT | -0.242 |
| AGGATCGA | 0.00545 |
| AGCCGGAG | 0.379 |
| CCTGAACC | -0.232 |
| GTATACAC | 0.103 |
| CACCGGGC | 0.12 |
| AACCCACT | 0.0655 |
| GGGGGTGA | -0.12 |

| Sequence | PBM E-score |
| --- | --- |
| AGGAGGAT | -0.171 |
| AAGCCTAC | -0.253 |
| GCTTGTCC | 0.0568 |
| ACCAGCCT | -0.171 |
| CCAGCGAG | -0.128 |
| CCCGCTTC | 0.211 |
| ATCAATTC | -0.097 |
| GTTAAAAA | 0.00196 |
| CTTGGAAA | 0.0714 |
| GTTGCGCA | -0.11 |
| TGTCCAAA | -0.167 |
| AAGACCTT | -0.178 |
| GTGTCCGA | 0.31 |
| ATTCCGTC | 0.285 |
| CCCAGGGA | -0.218 |
| TGGAGTAA | -0.192 |
| CGAAATCC | 0.165 |
| CGCTAACA | -0.0865 |
| ACATATGC | -0.279 |
| CGAGTATA | 0.0788 |
| TCTTGCAA | 0.0931 |
| ATATTTTA | -0.00971 |
| GCCACCGA | 0.0486 |
| AGACCGAC | 0.19 |
| ACGTTATC | -0.0756 |

| Sequence | PBM E-score |
| --- | --- |
| AGCACTGA | -0.229 |
| AACAGCCT | -0.151 |
| ATCCTGAC | -0.112 |
| ATGGCGTC | -0.158 |
| AAACGTGC | -0.118 |
| CGAATTAA | 0.0779 |
| AGCTTCCG | 0.423 |
| CCATGTCG | -0.0127 |
| CCGGACCA | 0.201 |
| ACAAGCCC | -0.136 |
| ACTTGCGA | -0.0723 |
| AAGTATAT | 0.099 |
| ATCAGTAG | -0.126 |
| ATCCGACC | 0.425 |
| AGGTAAAG | 0.119 |
| AATTACTG | -0.23 |
| ACTGCGCA | 0.0792 |
| CATGGACC | -0.151 |
| ACAGTTGA | -0.215 |
| ACCCCATC | -0.109 |
| CCCATAAC | 0.041 |
| AGTTTATA | 0.108 |
| CTATCGCA | -0.178 |
| GCCTTGTA | -0.208 |
| CGTAGGTA | 0.0315 |

| Sequence | PBM E-score |
| --- | --- |
| CCCAATCA | -0.152 |
| ATGTGACA | -0.294 |
| ACGACTGC | -0.203 |
| AAACTCAC | -0.091 |
| ATAGATTG | 0.2 |
| CGCCAAAG | -0.163 |
| GAGCCACA | -0.0875 |
| CTGTGCTA | -0.11 |
| ATTGATCC | 0.281 |
| TAACGTTA | 0.164 |
| TCGCGCGA | 0.0834 |
| AGAACTAG | -0.216 |
| CGAATACC | 0.0866 |
| AGATCCAA | -0.16 |
| CAAGTGCG | -0.0295 |
| GGGTCGAA | 0.0324 |
| ATACCGGA | 0.34 |
| CGCAGAAG | -0.1 |
| AGATCTCC | 0.0254 |
| AGGCCGGG | 0.181 |
| CATCCCGG | 0.342 |
| ACCTGTAG | -0.0917 |
| ACAAGAAG | -0.0913 |
| ATAAGAGG | 0.0401 |
| GTGGCAGA | -0.22 |

| Sequence | PBM E-score |
| --- | --- |
| ATGTGCCG | 0.299 |
| CCGCTTAC | 0.00078 |
| GAACATGA | 0.0115 |
| CGAAATTA | 0.259 |
| CATGCCTA | -0.0634 |
| CCCTCGCC | -0.217 |
| TTGCCAAA | 0.0529 |
| TACAAACA | -0.0674 |
| AACCCTGA | -0.0704 |
| CCGGCACC | 0.334 |
| CACGCGCG | -0.169 |
| CTTATGCC | 0.052 |
| GCAAGGGC | -0.269 |
| ATCGATTG | -0.0431 |
| AACGCCAG | 0.0613 |
| AGCCATCC | 0.107 |
| CTGAACAC | 0.00106 |
| GCGTAGGA | 0.0728 |
| CACAGCCA | -0.023 |
| AGCTGGGA | -0.141 |
| CGCCCAGC | -0.1 |
| GAGTACCC | 0.0867 |
| AGGCCGTC | -0.046 |
| CTACCTGC | 0.0989 |
| CACGACCA | -0.118 |

| Sequence | PBM E-score |
| --- | --- |
| ATCCGAGA | 0.471 |
| AGGTATAG | -0.0811 |
| CGAAACGC | 0.0894 |
| GAATGCCA | -0.0318 |
| AGTAGCGG | 0.145 |
| ATCCTTTC | -0.138 |
| GGCCTAAA | -0.102 |
| ACTGTCGA | -0.19 |
| GACGTCGA | -0.0717 |
| ACAGACAG | -0.234 |
| ACCAGTGG | -0.197 |
| GGCGGGGA | 0.309 |
| ACAGTGGT | -0.144 |
| CCGATCTA | 0.281 |
| ATATTAAG | -0.00502 |
| GCAACGCC | -0.0543 |
| AAATGACC | 0.0512 |
| AAAACTTT | 0.0161 |
| CACTGGTC | 0.00588 |
| AACGGCCA | 0.165 |
| GCGTCAAA | -0.139 |
| CGGTTACC | 0.228 |
| ACACGCGT | -0.128 |
| AGTTGCTC | -0.202 |
| AATGGCCA | -0.0901 |

| Sequence | PBM E-score |
| --- | --- |
| AGCTTTCA | -0.182 |
| ACCCCGAT | 0.266 |
| AAGTGCTA | -0.264 |
| GGTTGGAC | 0.00083 |
| CGACGGTC | -0.0145 |
| CAAACAGC | -0.14 |
| AGCGTCGA | -0.226 |
| CACCTTGC | -0.163 |
| TGGCTACA | -0.018 |
| AAGGGAGA | -0.194 |
| CAAACAAA | -0.181 |
| GATCATGA | -0.0718 |
| CTCATCAC | -0.116 |
| GCTGCATA | -0.0697 |
| CGCGCAAA | 0.0132 |
| AAGGGCCA | -0.33 |
| TCCACTAA | -0.0941 |
| CGCCCGAG | 0.328 |
| ATAACATA | 0.0949 |
| ACTGCGTA | -0.143 |
| CTGGGTAA | -0.172 |
| ACTCCTAA | -0.273 |
| ATACACGC | 0.0458 |
| CTGCCCCA | -0.0766 |
| ATCGGGTG | 0.366 |

| Sequence | PBM E-score |
| --- | --- |
| GAAACTAA | 0.0282 |
| GCTATGAA | -0.0486 |
| ATTGTACG | -0.0394 |
| GTCCAGTA | -0.179 |
| AACACAAT | -0.223 |
| TCCGGTCA | 0.204 |
| AATGTGCT | 0.0139 |
| AGGGCCTA | -0.0151 |
| CTGGCATC | -0.176 |
| ACGCTTTC | 0.0561 |
| AATCCGCA | 0.157 |
| AAGGTATC | 0.0541 |
| CTATGGTC | -0.113 |
| CTGGCGTA | -0.264 |
| CCAAGCCA | -0.287 |
| AAGAAAAG | -0.0789 |
| TCGTACAA | -0.243 |
| CACTACTG | -0.189 |
| GAAGGCCA | -0.169 |
